This is an account of results in article PMC4336329 (PLoS ONE, 2015).

In all, about 310,000 compounds went through this assay and about 14,000 (4.5%) showed an effect of 50% or more. Effects have a minus sign here. This is one part of the list.
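Also: peak tail current of the secondary pulse compared with the same well before compound.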

The experiment deals with human ether-à-go-go-related gene (hERG) potassium channel (human, UniProt Q12809). Nature of the experiment: primary screen, population patch clamp on CHO cells stably expressing hERG.
Sequence of human ether-à-go-go-related gene (hERG) potassium channel (Q12809 whole entry, looked up): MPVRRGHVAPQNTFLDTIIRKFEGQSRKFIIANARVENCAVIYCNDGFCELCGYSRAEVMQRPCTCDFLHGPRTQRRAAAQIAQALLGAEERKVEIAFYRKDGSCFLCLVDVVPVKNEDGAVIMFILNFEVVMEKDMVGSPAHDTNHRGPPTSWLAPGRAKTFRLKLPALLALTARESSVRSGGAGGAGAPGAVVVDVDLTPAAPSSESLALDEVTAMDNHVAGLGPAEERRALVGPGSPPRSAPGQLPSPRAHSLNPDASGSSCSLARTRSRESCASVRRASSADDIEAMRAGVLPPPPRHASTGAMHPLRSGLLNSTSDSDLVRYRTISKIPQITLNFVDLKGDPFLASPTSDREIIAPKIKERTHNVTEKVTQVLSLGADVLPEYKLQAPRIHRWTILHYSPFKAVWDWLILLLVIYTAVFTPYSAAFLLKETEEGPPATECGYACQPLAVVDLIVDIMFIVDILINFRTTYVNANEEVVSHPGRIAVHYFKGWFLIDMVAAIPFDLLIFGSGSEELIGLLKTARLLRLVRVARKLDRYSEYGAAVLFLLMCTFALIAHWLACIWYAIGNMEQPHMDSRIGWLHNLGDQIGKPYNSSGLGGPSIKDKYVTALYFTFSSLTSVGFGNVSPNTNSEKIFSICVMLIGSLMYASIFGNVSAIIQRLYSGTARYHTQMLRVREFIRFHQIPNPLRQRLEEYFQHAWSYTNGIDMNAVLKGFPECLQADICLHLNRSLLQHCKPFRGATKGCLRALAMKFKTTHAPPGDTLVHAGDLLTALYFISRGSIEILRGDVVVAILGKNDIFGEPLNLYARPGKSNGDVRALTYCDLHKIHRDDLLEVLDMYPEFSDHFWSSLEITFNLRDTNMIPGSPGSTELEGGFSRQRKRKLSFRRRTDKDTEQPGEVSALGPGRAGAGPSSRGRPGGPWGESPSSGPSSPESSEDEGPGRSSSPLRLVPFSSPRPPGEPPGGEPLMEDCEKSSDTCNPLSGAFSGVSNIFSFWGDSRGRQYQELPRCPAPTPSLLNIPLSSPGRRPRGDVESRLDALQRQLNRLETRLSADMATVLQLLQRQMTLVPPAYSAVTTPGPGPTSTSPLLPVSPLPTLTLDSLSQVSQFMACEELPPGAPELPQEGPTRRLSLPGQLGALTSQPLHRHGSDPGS
`C#CCOc1ccc(OC)cc1C(c1c(C)[nH][nH]c1=O)c1c(C)[nH][nH]c1=O`: the “hERG current change (%, negative = inhibition) at 10uM” value was 12.2%.
In the case of `COc1ccc(CNC(=O)C(C)OC(=O)CO/N=C(\C)c2ccc3c(c2)OCO3)cc1` (stereo not shown), the “hERG current change (%, negative = inhibition) at 10uM” value is -14.1%.
In the case of `O=C(NC1(O)C(=O)c2ccccc2C1=O)c1ccc(C(F)(F)F)cc1` it was 11.7%; in that of `CCCn1c(C)cc(C(=O)COC(=O)c2ccc[nH]c2=O)c1C`, 15%; in that of `COc1ccc(NC(=O)CC2C(=O)N(Cc3ccccc3)C(=S)N2CCN2CCOCC2)cc1` (stereo not shown), -36.5%.
On to `CC(C)[C@H](NC(=O)C1CCN(S(=O)(=O)c2ccc(F)cc2)CC1)C(=O)NCc1ccncc1`, for which the “hERG current change (%, negative = inhibition) at 10uM” value is recorded as 14.2%.
In the case of `O=C(/C=C/c1ccccc1)NC(=S)NNC(=O)c1ccco1` it was 23.7%.
For the compound `CCN(C(=O)COC(=O)c1cc2ccccc2cc1O)C1CCS(=O)(=O)C1` (stereo not shown), the “hERG current change (%, negative = inhibition) at 10uM” value is given as -8.53%.
For `COc1ccc(COC(=O)Nc2cn(C)nc2C(F)(F)F)cc1`, the “hERG current change (%, negative = inhibition) at 10uM” value is listed as -7.76%.
With `CC(C(=O)NC1=NCCS1)N1C(=O)C2CC=CCC2C1=O` (stereo not shown), the “hERG current change (%, negative = inhibition) at 10uM” value was 18.7%.
In the case of `Cn1c(SCc2ccon2)nc2ccccc2c1=O` it was -5.87%; in that of `COc1ccc(CCN(C)Cc2ccc(OCc3ccccc3)c(OC)c2)cc1OC`, -74.3%.
With `CC(=O)c1cccc(NC(=O)C2COc3ccccc3O2)c1` (stereo not shown), the “hERG current change (%, negative = inhibition) at 10uM” value is recorded as -0.556%.
For the compound `CCC(C)[C@H]1CN=C(N)N1CCc1cccc2ccccc12` (stereo partly shown), the “hERG current change (%, negative = inhibition) at 10uM” value was -16.6%.
In the case of `CC1=CC(=C2C(=O)c3ccccc3C2=O)C=C(C)O1` it was 0.136%; in that of `COc1ccc(NCc2nnc(SCCN3CCCCC3)n2-c2ccc(C)cc2)cc1`, -66.7%.
Turning to `CC1CCCC(NC(=O)CSc2nnc(C(F)(F)F)n2C)C1C` (stereo not shown), the “hERG current change (%, negative = inhibition) at 10uM” value stood at 10.7%.
In the case of `Cc1cccc(N2C(=O)c3ccccc3C2=O)n1` it was 18.1%; in that of `COc1cccc(OCCCOc2ccc([N+](=O)[O-])cc2Cl)c1`, 4.29%.
`O=C(NC(Oc1ccccc1)C(Cl)(Cl)Cl)c1ccccc1` (stereo not shown): the “hERG current change (%, negative = inhibition) at 10uM” value was 16.6%.
In the case of `CC(=O)Nc1cc(S(=O)(=O)C(F)(F)F)ccc1Cl` it was 2.32%; in that of `Cc1nonc1OCC(C)(COc1nonc1C)NC(=O)c1ccccc1`, -6.59%; in that of `CC(C)c1ccc(NC(=O)C[n+]2ccn(C3=C([O-])c4ccccc4C3=O)c2)cc1`, 29.1%.
With `Cc1cc(N2CCOCC2)nc(N2CCOCC2)n1`, the “hERG current change (%, negative = inhibition) at 10uM” value turned out to be 6.64%.
Take `CN(C)C(=O)Cn1cc(S(=O)(=O)Cc2ccccc2)c2ccccc21`: the “hERG current change (%, negative = inhibition) at 10uM” value is on record as 7.58%.
In the case of `O=C(c1ccccc1-c1nc(-c2ccc(F)cc2)no1)N1CCCC1` it was -30.8%; in that of `CCOC(=O)c1cc2c(nc1N)CC(C)(CC)OC2` (stereo not shown), 7.05%; in that of `CCCS(=O)(=O)N1CCC(C(=O)N2CCN(Cc3ccccc3)CC2)CC1`, -3.37%.
Next, `COc1cccc(CN2C(=O)[C@H]3Cc4c([nH]c5ccccc45)C(C)(C)N3C2=O)c1`: 4.46%; `Cc1nn(S(=O)(=O)c2ccc(Cl)cc2)c(C)c1Sc1ccc([N+](=O)[O-])cc1`: 2.75%; `O=C(C[n+]1ccc(-c2cc(C(=O)Nc3cccc(C(F)(F)F)c3)c3ccccc3n2)cc1)c1cccc([N+](=O)[O-])c1.[Br-]`: 6.74%.
`Cc1ccc(OCc2cc(C(=O)NCC(C)(C)N3CCOCC3)no2)cc1C`: the “hERG current change (%, negative = inhibition) at 10uM” value is -45.8%.
For the compound `O=C(NCc1nnc(SCc2ccccc2)n1-c1ccc(F)cc1)C12CC3CC(CC(C3)C1)C2`, the “hERG current change (%, negative = inhibition) at 10uM” value worked out at 3.29%.
Next, `O=C(c1ccc(Br)cc1)c1cc2ccc(O)cc2oc1=O`: 2.42%; `COc1ccc(-c2nc(C#N)c(N3CCc4ccccc4C3)o2)cc1OC`: -9.26%; `Cc1ccc(C)c(NC(=O)CCOc2ccccc2)c1`: 14.5%.
Next, `CCc1n[nH]c(CCN)n1.Cl`: 12.1%; `CCOc1ccccc1C(=O)N1CCN(c2cccc(Cl)c2)CC1`: -12.5%; `CC(C)(C)C(=O)/C=c1\[nH]c(=O)/c(=C\c2ccc(C#N)cc2)s1`: 7.64%.
In the case of `Cc1nc(CCNC(=O)CC2C(=O)NCCN2Cc2ccccc2)sc1C` (stereo not shown) it was 5.67%.
Turning to `Cc1ccc(OCc2cc(C(=O)N(C)Cc3nccn3C)no2)cc1C`, the “hERG current change (%, negative = inhibition) at 10uM” value is given as -15.2%.
In the case of `O=C(C1=C(O)C(=O)N(Cc2ccco2)C1c1cccc(Cl)c1)c1ccco1` (stereo not shown) it was -8.62%; in that of `O=C1CCc2cc(NS(=O)(=O)c3ccc(F)cc3)cc3c2N1CCC3`, -2.17%; in that of `CCOCCc1nn2c(=O)cc(CSCC(=O)Nc3ccc(OC)cc3)nc2s1`, 12.7%.
In the case of `O=c1c2c(nc3cc(-c4ccccc4)[nH]n13)CCC2`, the “hERG current change (%, negative = inhibition) at 10uM” value is recorded as 3.04%.
In the case of `CCOc1ccc(NC(=O)N(CC(C)C)CC(C)C)cc1` it was 0.467%; in that of `COc1ccc(N(CC(=O)Nc2cc([N+](=O)[O-])ccc2C)S(C)(=O)=O)cc1OC`, -2.94%.
In the case of `CCCCSc1nnc2c(n1)OC=Nc1ccccc1-2` it was -12.6%; in that of `Cc1cccc([C@@H]2[C@@H]3C(=O)N(Cc4ccccc4)C(=O)[C@@H]3[C@]3(Cc4ccc(Cl)cc4)C(=O)N(c4cccc(Br)c4)C(=O)N23)c1`, 14.6%; in that of `COc1ccc(CC(=O)NC2CCSc3ccccc32)c(OC)c1` (stereo not shown), 12.2%.
`CCN(CC)C(=O)c1c[nH]c2ccc(S(=O)(=O)Nc3cc(C)cc(C)c3)cc2c1=O`: the “hERG current change (%, negative = inhibition) at 10uM” value was -0.741%.
Next, `C=CCOc1c(Br)cc(CNCCCN2CCOCC2)cc1OC.Cl`: 0.712%; `Cc1cc(NC(=O)CN2CCN(C)CC2)no1`: 24.6%.
For the compound `Cc1cc(CN(C)C(=O)c2cc(COc3ccc(C)c(C)c3)on2)on1`, the “hERG current change (%, negative = inhibition) at 10uM” value turned out to be 15.9%.
Next, `CCCCOC(=O)C1=C(C)Nc2ncnn2C1c1cccc(OC)c1OC` (stereo not shown): -4.86%; `CCCCc1c(O)nc(SCC(=O)N2CCOCC2)[nH]c1=O`: 9.57%.
Next, `Cc1nccn1CCc1nc(N)nc(N)n1`: 9.49%.
In the case of `COCCNc1nnc(SCC(=O)Nc2nnc(-c3ccccc3)o2)s1` it was 21.8%.
`c1ccc(Cc2nnc3sc(-c4cccnc4)nn23)cc1`: the “hERG current change (%, negative = inhibition) at 10uM” value is given as -47.1%.
Turning to `Cc1ccc(N=Nc2c(N)[nH]n3c(=O)cc(C)nc23)cc1`, the “hERG current change (%, negative = inhibition) at 10uM” value is given as -29.3%.
Regarding `Cc1ccc(OCC(=O)Nc2ccc3oc(=O)ccc3c2)cc1`, the “hERG current change (%, negative = inhibition) at 10uM” value is 7.52%.
In the case of `Cc1ccc(CN2CCC(CNS(=O)(=O)c3ccc(-c4ccc(=O)[nH]n4)s3)CC2)cc1` it was -60.6%; in that of `Cn1nc(C(=O)Nc2cccc(S(N)(=O)=O)c2)c2ccccc2c1=O`, 11.4%; in that of `COc1ccc(NC(=O)N2c3ccccc3C(C)=CC2(C)C)cc1`, 12.1%.
Next, `COc1cc(C(=O)NCCc2c[nH]c3ccccc23)ccc1OCc1c(C)noc1C`: -16.6%; `CCCOc1cccc(C(=O)Nc2cccc3ncccc23)c1`: 2.82%.
In the case of `COc1ccccc1CCCNC(=O)C1CCC(=O)N(CCc2ccc(Cl)cc2)C1` (stereo not shown) it was -60.5%; in that of `O=C1c2ccccc2NC(c2ccc3c(c2)OCCO3)N1c1ccc2c(c1)OCCO2` (stereo not shown), 10.9%; in that of `Nc1nc(SCC(=O)N2N=C3/C(=C/c4ccco4)CCCC3C2c2ccco2)n[nH]1` (stereo not shown), -10.8%.
Turning to `COc1ccc(C(=O)/C=C/c2ccc(OC)c(COc3ccccc3F)c2)cc1`, the “hERG current change (%, negative = inhibition) at 10uM” value was 9.24%.
In the case of `CC1=NN(c2ccccc2)C(=O)C1C(=O)c1ccc(Cl)cc1` (stereo not shown), the “hERG current change (%, negative = inhibition) at 10uM” value worked out at 7.39%.
As for `O=C(Cc1cccc2ccccc12)Nc1ccc2c(c1)C(=O)NC2=O`, the “hERG current change (%, negative = inhibition) at 10uM” value is recorded as 9.52%.
As to `Cc1cc(Nc2cccc(C(F)(F)F)c2)n2nc(C)nc2n1`, the “hERG current change (%, negative = inhibition) at 10uM” value is given as -51.8%.
`COC(=O)c1c(NC(=O)C2c3ccccc3Oc3ccccc32)sc(C)c1C`: the “hERG current change (%, negative = inhibition) at 10uM” value was found to be 15.7%.
In the case of `CCc1cccc(C)c1NC(=O)CO/N=C(\N)CC(=O)NC1CCCCC1` it was 9.62%; in that of `CCOC(=O)/C=C/C(=O)Nc1ccccc1-c1ccccc1NC(=O)/C=C/C(=O)OCC`, 2.65%.
Next, `C=CCOc1ccc(Oc2cc(C)nc(SC)n2)nn1`: 12%; `O=C(O)CN1CCc2ccccc2C1`: 21.3%.
For the compound `Cc1ccc(CNC(=O)Nc2ccccc2)cc1`, the “hERG current change (%, negative = inhibition) at 10uM” value is 1.41%.
Next, `O=C(N/N=C/c1c[nH]c2ccccc12)c1cccs1`: 4.97%.
In the case of `CN1CCN(c2nnc(-c3ccc(Cl)cc3)c3ccccc23)CC1` it was -45.7%; in that of `CCC(=O)Nc1cc(C)c(NC(=O)CCc2ccccc2)cn1`, 2.73%.
With `CN(C)S(=O)(=O)c1ccc2c(c1)C(=O)c1cc(S(=O)(=O)N(C)C)ccc1CC2`, the “hERG current change (%, negative = inhibition) at 10uM” value was found to be 7.08%.
With `Cc1cc(N/C=C/C(=O)c2cccs2)ccc1F`, the “hERG current change (%, negative = inhibition) at 10uM” value was 22.5%.
Next, `O=C(c1ccc(COc2ccccc2Cl)o1)N1N=C(C(F)F)CC1(O)C(F)F` (stereo not shown): 17.1%; `COc1cc2c(cc1OC)C(C)N(C(=O)c1cccc([N+](=O)[O-])c1)CC2` (stereo not shown): -5.85%; `O=C(OC(C(=O)NC1CCCC1)c1ccc(F)cc1)c1ccno1` (stereo not shown): -2.83%.
In the case of `COc1ccc(C(=O)Oc2c(CN3CCOCC3)cc(Cl)c3cccnc23)cc1OC` it was 6.53%.
